Source: paper PMC4336329 (PLoS ONE, 2015)
In all, about 310,000 compounds went through this assay and about 2,200 (0.71%) showed an effect of 50% or more. Effects have a minus sign here. The list shows a part of the results.

Biological target: human ether-à-go-go-related gene (hERG) potassium channel (human, UniProt Q12809)
Assay: primary screen, population patch clamp on CHO cells stably expressing hERG

human ether-à-go-go-related gene (hERG) potassium channel, sequence (Q12809 whole entry, looked up): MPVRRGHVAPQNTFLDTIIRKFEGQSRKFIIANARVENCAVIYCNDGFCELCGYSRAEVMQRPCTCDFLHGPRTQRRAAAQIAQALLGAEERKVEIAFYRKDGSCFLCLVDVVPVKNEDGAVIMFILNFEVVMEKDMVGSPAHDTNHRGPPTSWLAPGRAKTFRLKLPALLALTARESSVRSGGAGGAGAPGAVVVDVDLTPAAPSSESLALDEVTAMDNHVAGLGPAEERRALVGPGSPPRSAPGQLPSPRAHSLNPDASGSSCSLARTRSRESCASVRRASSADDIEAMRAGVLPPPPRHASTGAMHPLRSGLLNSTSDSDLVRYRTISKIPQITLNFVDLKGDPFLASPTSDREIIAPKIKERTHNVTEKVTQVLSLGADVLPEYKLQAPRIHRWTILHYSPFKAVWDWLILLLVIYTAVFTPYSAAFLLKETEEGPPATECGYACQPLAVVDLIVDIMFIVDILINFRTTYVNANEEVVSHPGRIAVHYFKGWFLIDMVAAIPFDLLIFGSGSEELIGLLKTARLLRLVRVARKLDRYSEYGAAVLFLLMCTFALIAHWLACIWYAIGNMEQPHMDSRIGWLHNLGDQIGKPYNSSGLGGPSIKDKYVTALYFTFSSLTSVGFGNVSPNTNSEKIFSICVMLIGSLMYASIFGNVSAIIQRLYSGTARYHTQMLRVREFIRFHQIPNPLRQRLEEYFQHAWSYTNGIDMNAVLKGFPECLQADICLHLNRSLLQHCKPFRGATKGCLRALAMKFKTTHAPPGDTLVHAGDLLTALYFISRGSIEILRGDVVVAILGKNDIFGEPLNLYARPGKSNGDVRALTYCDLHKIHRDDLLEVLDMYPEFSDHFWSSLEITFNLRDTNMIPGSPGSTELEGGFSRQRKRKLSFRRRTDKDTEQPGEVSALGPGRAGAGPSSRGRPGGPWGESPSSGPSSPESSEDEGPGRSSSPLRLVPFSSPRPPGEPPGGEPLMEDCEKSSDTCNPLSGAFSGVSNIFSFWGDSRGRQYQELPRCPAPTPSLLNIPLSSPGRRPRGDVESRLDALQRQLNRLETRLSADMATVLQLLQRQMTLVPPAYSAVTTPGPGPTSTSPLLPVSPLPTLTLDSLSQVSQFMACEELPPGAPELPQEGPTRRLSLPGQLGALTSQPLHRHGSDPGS

Going from COc1ccc(OCCCC(=O)ON=C(N)c2ccccc2C)cc1 to COc1ccc(C(CNC(=O)C(Cc2ccccc2)NC(N)=O)N(C)C)cc1 (stereo not drawn), the “hERG current change (%, negative = inhibition) at 1uM” value rises from 6.73% to 12.8%.

First: COc1ccc(C2CC(C(F)(F)F)n3ncc(C(=O)NCc4cccnc4)c3N2)cc1OC (stereo not drawn)
Second: COc1ccc(/C=N/NC(=O)c2cccnc2)cc1O
The “hERG current change (%, negative = inhibition) at 1uM” value of the first is lower: 12.7% for the first, 14.8% for the second.

First: CCC(=O)Nc1ccc(NC(=S)NC(=O)Cc2ccccc2)cc1
Second: CCC(=O)Nc1ccc(C(=O)N/N=C/c2ccccc2[N+](=O)[O-])cc1
The “hERG current change (%, negative = inhibition) at 1uM” value of the first is lower: 16.2% for the first, 18.9% for the second.

Going from Cc1ccc(Cl)cc1N1CCN(S(=O)(=O)c2cccc(S(=O)(=O)N3CCCC3)c2)CC1 to O=C(O)c1cccc(NC(=O)c2cccc(S(=O)(=O)N3CCCCC3)c2)c1, the “hERG current change (%, negative = inhibition) at 1uM” value falls from 9.31% to 9.28%.

Going from O=C(Cc1ccccc1)NCC(=O)N1CCC1 to O=C(c1ccc(Cl)cc1)N1CCC(=O)N(C(CO)Cc2ccccc2)CC1 (stereo not drawn), the “hERG current change (%, negative = inhibition) at 1uM” value rises from 10.8% to 11.3%.

Compared with O=C1Nc2cc(Cl)c(Cl)cc2N(O)N1c1ccccc1, CC1(C)C(O)=C(c2nc3ccccc3[nH]2)C(=N)N1c1ccccc1 is lower in “hERG current change (%, negative = inhibition) at 1uM” value: 14.6% for the first, 5.93% for the second.

Going from Cc1ccc(CSc2nnc(SCC(=O)N/N=C/C=C/c3ccccc3[N+](=O)[O-])s2)cc1 to Cc1ccc(S(=O)(=O)NC(CC(=O)N2CCc3ccccc32)c2ccco2)cc1 (stereo not drawn), the “hERG current change (%, negative = inhibition) at 1uM” value falls from 8.94% to 6.47%.

Compared with Cc1ccccc1Nc1c([N+](=O)[O-])cncc1[N+](=O)[O-], Cc1cccc(C)c1NC(=O)CN1C(=O)NC(C)(CCc2ccccc2)C1=O (stereo not drawn) is higher in “hERG current change (%, negative = inhibition) at 1uM” value: 9.67% for the first, 11.9% for the second.

First: CCN1C(=O)[C@@H]2[C@@H](c3ccc(-c4ccc(F)cc4)cc3)N3CCCC[C@@]3(C(=O)OC)[C@@H]2C1=O.O=C(O)C(F)(F)F
Second: COCC(=O)n1nc(-c2ccc(Cl)cc2)nc1NCc1ccc(F)cc1
The “hERG current change (%, negative = inhibition) at 1uM” value of the first is higher: 9.58% for the first, 3.13% for the second.

Going from CCOC(=O)Cn1nc2sc3ccccc3n2c(=O)c1=O to COCCN(C(=O)CCCc1nc2ccccc2s1)c1c(N)n(CC(C)C)c(=O)[nH]c1=O, the “hERG current change (%, negative = inhibition) at 1uM” value rises from 0.315% to 16.3%.

Compared with CC(C)N(C)C(=O)C(=O)c1cccn1-c1cccc(Cl)c1C#N, CCC(=O)N1CCN(c2ccccc2NC(=O)COc2cc(C)ccc2C(C)C)CC1 is lower in “hERG current change (%, negative = inhibition) at 1uM” value: 11% for the first, -1.03% for the second.

Compared with C=CCN=C1SC(CC)C(=O)N1S(=O)(=O)c1ccc(C)cc1 (stereo not drawn), NS(=O)(=O)c1ccc(-c2ccc(/C=C3\SC(=O)NC3=O)o2)cc1 is higher in “hERG current change (%, negative = inhibition) at 1uM” value: -13.8% for the first, 18.3% for the second.

Compared with CCOC(=O)c1ccc(NC(=O)NCc2ccccc2OC)cc1, CCOc1ccc(CNC(=O)c2ccc(Sc3ccc(C)cc3)c(NC(C)=O)c2)cc1OC is lower in “hERG current change (%, negative = inhibition) at 1uM” value: 13.8% for the first, 6.67% for the second.

Going from CS(=O)(=O)N1CCC(C(=O)Nc2cccc(C(F)(F)F)c2)CC1 to CC(=O)Nc1ccc(S(=O)(=O)N2CCC(C(=O)NCCC(=O)Nc3ccccc3)CC2)cc1, the “hERG current change (%, negative = inhibition) at 1uM” value rises from -1.35% to 8.98%.

Going from O=C(CNS(=O)(=O)c1ccc(Br)cc1)NCc1ccncc1 to O=C(CCN1C(=O)/C(=C/c2ccccc2)SC1=S)NNC(=O)c1ccncc1, the “hERG current change (%, negative = inhibition) at 1uM” value falls from 11.3% to 8.35%.

Compared with CCCCn1c(O)c(C(C)=NCCc2c[nH]c3ccccc23)c(=O)[nH]c1=O, CC(=O)CCc1c(C)c2cccc(C)c2[nH]c1=O is higher in “hERG current change (%, negative = inhibition) at 1uM” value: -1.27% for the first, 8.68% for the second.

First: CC1CCC(NC(=O)CN(C)S(=O)(=O)c2ccc3c(c2)c(=O)n(C)c(=O)n3C)CC1 (stereo not drawn)
Second: COc1cc(OC)c(NC(=O)CS(=O)(=O)Cc2nc(-c3ccc(C)cc3)oc2C)cc1Cl
The “hERG current change (%, negative = inhibition) at 1uM” value of the first is lower: 6.81% for the first, 16.1% for the second.

Going from CCN(CCn1cccn1)Cc1nc(-c2ccc(OC)cc2)no1 to CCCNC(=O)c1ccc2c(=O)c(O)c(-c3ccc(OC)cc3)[nH]c2c1, the “hERG current change (%, negative = inhibition) at 1uM” value rises from 1.32% to 11.9%.

First: CC(Sc1nc(-c2ccc(F)cc2)cs1)C(=O)Nc1ccc(Cl)cn1 (stereo not drawn)
Second: Cc1ccc(Sc2ncccc2C(=O)N(C)Cc2cccs2)c(C)c1
The “hERG current change (%, negative = inhibition) at 1uM” value of the first is lower: 11% for the first, 13.1% for the second.

Compared with Cc1cccc(S(=O)Cc2ccc(C(=O)NC3CCN(Cc4ccccc4)CC3)o2)c1 (stereo not drawn), CCc1ccc(NC(=O)c2ccc(F)c(S(=O)(=O)NCC3COc4ccccc4O3)c2)cc1 (stereo not drawn) is lower in “hERG current change (%, negative = inhibition) at 1uM” value: 10.5% for the first, 10.1% for the second.

First: CCCN(CCC)CCNC(=O)CS(=O)Cc1nc(-c2ccc(C)cc2)oc1C (stereo not drawn)
Second: COc1ccc2nc(NC(=O)CCNC(=O)c3ccco3)sc2c1
The “hERG current change (%, negative = inhibition) at 1uM” value of the first is lower: -11.3% for the first, -0.259% for the second.

Compared with COc1ccc(COC(=O)c2ccc(C)c(S(=O)(=O)N3CCOCC3)c2)cc1F, COc1ccc(N(C(=O)c2ccco2)S(=O)(=O)c2cc(Cl)c(Cl)cc2Cl)cc1 is lower in “hERG current change (%, negative = inhibition) at 1uM” value: 16% for the first, -1.28% for the second.

Going from CCC(C)NC(=O)C(Cc1ccccc1)n1cccc1 (stereo not drawn) to Cc1nc2c(C(=O)NCCC(C)C)c[nH]n2c(=O)c1Cc1ccccc1F, the “hERG current change (%, negative = inhibition) at 1uM” value falls from 7.43% to 6.55%.

First: C[C@H]1O[C@H](O[C@H]2[C@H](O[C@@H]3CC[C@@]4(C)C(CC[C@]5(C)C4CC=C4[C@@H]6CC(C)(C)CC[C@]6(C(=O)O[C@@H]6O[C@H](CO)[C@@H](O)[C@H](O)[C@H]6O)CC[C@]45C)C3(C)C)O[C@H](C(=O)O)[C@@H](O)[C@@H]2O)[C@@H](O)[C@@H](O)[C@@H]1O (stereo partly drawn)
Second: CC(=O)N1c2ccc([N+](=O)[O-])cc2NC(=O)CC1C (stereo not drawn)
The “hERG current change (%, negative = inhibition) at 1uM” value of the first is higher: 12.3% for the first, 12% for the second.

Going from Cc1ccc(N2CCN(C(=S)c3ccc(N(C)C)cc3)CC2)cc1 to O=C(Nc1cccc(C(F)(F)F)c1)c1ccc(-n2cncn2)nc1, the “hERG current change (%, negative = inhibition) at 1uM” value rises from 1.97% to 5.62%.

In the case of COc1ccc(NC(=O)CSc2nc(N)c(NC(=O)c3cccs3)c(=O)[nH]2)cc1, the “hERG current change (%, negative = inhibition) at 1uM” value was 10.2%.
